Measurements taken from PubChem BioAssay AID1345083 (National Center for Advancing Translational Sciences (NCATS), 2018).
Hit rate of the full screen: of about 94,000 compounds, about 6,200 (6.6%) were called active. Inconclusive results, whose numbers are uncertain, are shown with a selection of clear calls. The call rests on the fitted dose curve; in most records, active means well fitted inhibition curve with a large enough effect; inconclusive means small, poorly fitted or top-dose-only effect; inactive means flat fitted curve, though single readings scatter. Potencies beside an inconclusive call are fits to weak or partial responses and may not hold up.

Assay: Cytotoxic Profiling in HEK 293 Cell Line of Diverse Libraries Using Quantitative High-Throughput Screening; further: nearly all actives have a fitted effect of over 60% in size
Details: HEK 293 viability, ATP luminescence (CellTiter-Glo), 48-72 h; activity change, negative = cytotoxicity: at 115 µM (top of the series) unless noted; series mostly up to 115 µM
In short: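 Luminescence from cellular ATP, measured with CellTiter-Glo, indicates HEK 293 viability. Cells plated at 250 cells/well are treated with compound for 48 or 72 hr at 37 degree Celsius before reagent addition.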
On the % scale 0 is the no-effect control and ±100 the full control effect; potency means the concentration at half of the fitted maximal effect; tags describe the fitted curve by direction and shape.

Structure (SMILES) | Potency | activity change, negative = cytotoxicity | outcome
O=C1c2c(nc(CNCc3ccc4c(c3)OCO4)n2Cc2ccccc2)NCCN1CCOc1ccccc1 | inconclusive: 50.1 µM [inhibitor, partial curve, poor fit] |  | 
COc1ccc(CNC(=O)CC[C@H]2CNC(=O)[C@@H]3[C@@H](CCN3Cc3nc4ccccc4n3C)N2C)cc1 | inconclusive: 50.1 µM [inhibitor, partial curve, poor fit] |  | 
O=C(NC1CCCC1)[C@H]1C[C@@H](O)[C@H](O)[C@@H]2N=C(Nc3ccc4c(c3)OCO4)S[C@@H]21 |  | inactive: -12.2% [at 172 µM] | 
O=C1NCCOCCCN(Cc2cccc(F)c2)[C@H]2CCCC[C@@H]12 |  |  | inactive
CC(C)C[C@@H]1N[C@H](C(=O)NCCCn2ccnc2)Cc2c[nH]c3cccc1c23 | inconclusive: 63.1 µM [inhibitor, full curve, poor fit] |  | 
CC1(c2ccccc2)N(Cc2ccccc2)C(=O)OC12CCN(Cc1cccc(O)c1)CC2 (stereo unspecified) | inconclusive: 79.4 µM [inhibitor, partial curve, poor fit] |  | 
Cc1nn(-c2ccccc2)c2c1C(C)N(C1CCN(C(=O)Cc3ccc(F)cc3)C1)C2=O (stereo unspecified) | inconclusive: 50.1 µM [inhibitor, partial curve, poor fit] |  | 
CCCCc1cc(C[C@@H]2C[C@H](NC(=O)N3CCOCC3)C2(C)C)no1 | inconclusive: 70.8 µM [inhibitor, partial curve, poor fit] |  | 
CC(C)NC(=O)c1ccc2nc(-c3ccccn3)oc2c1 | active: 44.7 µM |  | 
COc1cccc(C(=O)NC2CCN(C(=O)c3ccc(-c4ccccc4OC)cc3)CC2)c1 | inconclusive: 50.1 µM [inhibitor, partial curve, poor fit] |  | 
CCCCOC(=O)N1CCC(=O)N(CC)C[C@H]2COc3cc(OC)ccc3[C@H]21 | inconclusive: 44.7 µM [inhibitor, partial curve, poor fit] |  | 
O=C(c1cccc(F)c1)N1CCC2(CC1)CC(OCC1CC1)CCO2 (stereo unspecified) |  | inactive: -6.26% | 
c1ccc(-c2nnc3ccc(NCc4cccs4)nn23)nc1 | inconclusive: 112 µM [inhibitor, partial curve] |  | 
Cc1noc(C)c1-c1cc2cc(CO)oc2c(NCc2ccc3c(c2)OCO3)n1 | inconclusive: 100 µM [inhibitor, partial curve] |  | 
O=S(=O)(Cc1ccccc1)N1CCC(OC2CCN(Cc3ccccc3)CC2)CC1 | inconclusive: 79.4 µM [inhibitor, single point] |  | 
O=C(N1CCC(N[S+](=O)([O-])c2cccnc2)CC1)N1CC2CC(C1)[C@H]1CCCC(=O)N1C2 (stereo partly specified) |  | inactive: -2.66% | 
Cc1nc(C(=O)N2CCCC(c3[nH]ncc3Cc3ccccc3)C2)cs1 (stereo unspecified) | inconclusive: 28.2 µM [inhibitor, partial curve, poor fit] |  | 
Cc1ccc(NC(=O)c2nnn3c2COC(c2ccc(F)cc2)C3)c(Br)c1 (stereo unspecified) |  | inactive: 2.77% | 
Cn1cc(CNc2ccc(-c3nc(CCCc4ccccc4)no3)cn2)cn1 | inconclusive: 50.1 µM [inhibitor, partial curve, poor fit] |  | 
O=C1NCCCCCCN(C(=O)CC2CCCCC2)[C@H]2CCCC[C@@H]12 | inconclusive: 50.1 µM [inhibitor, partial curve, poor fit] |  | 
CCCc1ncncc1C(=O)N1CCCC(CCc2ccc(F)cc2)C1 (stereo unspecified) | inconclusive: 70.8 µM [inhibitor, partial curve, poor fit] |  | 

Structure (SMILES) | Potency | activity change, negative = cytotoxicity | outcome
CN(C)c1nc2c(c(=O)[nH]1)CCN(Cc1ccccc1F)CC2 | inconclusive: 70.8 µM [inhibitor, single point] |  | 
C=CCN1C[C@H]2COc3ccccc3[C@H]2N(C(=O)OCCCC)CCC1=O |  | inactive: -28.9% | 
CNC(=O)Nc1ccc(C2(C(=O)N3CCN(c4ccc(Cl)cc4)CC3)CCC2)cc1 | inconclusive: 50.1 µM [inhibitor, partial curve, poor fit] |  | 
Cc1ccccc1C(=O)N1CCC(c2nn(-c3ccc(Cl)cc3)c(=O)[nH]2)CC1 | inconclusive: 50.1 µM [inhibitor, partial curve, poor fit] |  | 
CCc1nncn1C1CCN(S(=O)(=O)c2ccc(Cl)c(C)c2)CC1 | inconclusive: 28.2 µM [inhibitor, full curve, poor fit] |  | 
CC(NC(=O)c1ccc2nnc(Cc3ccco3)n2c1)c1ccc(F)cc1 (stereo unspecified) |  |  | inactive
O=C1NCc2ccccc2CC12CCCN(Cc1ccccc1OC(F)(F)F)C2 (stereo unspecified) | inconclusive: 50.1 µM [inhibitor, partial curve, poor fit] |  | 
CN(Cc1cccc(N2CCN(C(=O)OC(C)(C)C)CC2)c1)[S+](C)(=O)[O-] | inconclusive: 50.1 µM [inhibitor, partial curve, poor fit] |  | 
O=C(Cc1ccccc1F)N1CCC(Oc2cccc(F)c2)C1 (stereo unspecified) | inconclusive: 89.1 µM [inhibitor, single point] |  | 
O=C(C1CCCC1)N1CCN(Cc2ccccc2-c2cccnc2)CC1 | active: 50.1 µM |  | 
c1ccc(-c2nc(C3CCOCC3)no2)c(OC2CCN(C3CCCC3)C2)c1 (stereo unspecified) | inconclusive: 31.6 µM [inhibitor, partial curve, poor fit] |  | 
COc1ccc(OCC2CN(Cc3cccs3)[S+](=O)([O-])c3cnccc3O2)cc1 (stereo unspecified) | inconclusive: 31.6 µM [inhibitor, partial curve, poor fit] |  | 
CC1(c2ccccc2)N(Cc2ccccc2)C(=O)OC12CCN(C(=O)c1ccc(F)cc1)CC2 (stereo unspecified) | inconclusive: 79.4 µM [inhibitor, partial curve, poor fit] |  | 
Cc1ccc(S(=O)(=O)N2CCC(CCC(=O)NCc3ccccc3)CC2)cc1 | inconclusive: 89.1 µM [inhibitor, single point] |  | 
CCC1(C(=O)NC2CCCCCC2)CCCCC(=O)N1 (stereo unspecified) |  | inactive: 1.57% | 
Cc1cc(S(=O)(=O)N2CCCC(Cn3cnc4cccnc43)C2)ccc1F (stereo unspecified) | inconclusive: 79.4 µM [inhibitor, partial curve, poor fit] |  | 
Cc1nn(-c2ccccc2)c2c1C(C(C)C)N(C1CCN([S+](=O)([O-])c3cccs3)C1)C2=O (stereo unspecified) | inconclusive: 50.1 µM [inhibitor, partial curve, poor fit] |  | 
O=C1Nc2ccccc2CN(CC2CCCCC2)C12CCNC2 (stereo unspecified) | active: 89.1 µM |  | 
COc1ccccc1Nc1ncc2c(n1)CN(C(=O)c1cccc(O)c1)CCN2 | active: 100 µM |  | 
CC(=O)N1Cc2ccccc2CC2(CCCN2CCc2ccccc2)C1 (stereo unspecified) | inconclusive: 79.4 µM [inhibitor, partial curve, poor fit] |  | 
COc1cc(CN2CCC(CO)(CN3CCCC3)CC2)ccc1F | inconclusive: 44.7 µM [inhibitor, partial curve, poor fit] |  | 

Structure (SMILES) | Potency | activity change, negative = cytotoxicity | outcome
O=C(NCc1cccc(F)c1)c1ccc2nnc(C3CCOCC3)n2c1 |  |  | inactive
O=C(N1CCN(c2cc(-c3ccc(Cl)cc3)[nH]n2)CC1)C1(c2ccccc2)CC1 | active: 44.7 µM |  | 
COc1ccc(C(=O)N2CCCC2c2noc(COc3ccc(F)cc3)n2)cn1 (stereo unspecified) | inconclusive: 50.1 µM [inhibitor, partial curve, poor fit] |  | 
CCn1ccc(C(=O)N2CCCCCNC(=O)[C@H]3C[C@H](C(=O)N4CCc5ccccc5C4)C[C@H]32)n1 |  | inactive: -14.4% | 
C=CCNC(=O)CCc1c(C)nn(-c2ccccc2)c1Oc1ccccc1F | inconclusive: 79.4 µM [inhibitor, partial curve, poor fit] |  | 
COCC1CN(C(C)=O)CC12CCN(Cc1cccc(OC)c1OC)CC2 (stereo unspecified) |  | inactive: -3.16% | 
Cc1ccc(NC(=O)N[C@@H]2C=C(C(=O)N[C@@H](Cc3cccs3)C(N)=O)C[C@@H](O)[C@@H]2O)cc1 |  |  | inactive
O=C(O)COc1ccc(-c2nccc3c2C(=O)N(Cc2c[nH]c4ccccc24)CC(COc2cccc(N4CCOCC4)c2)O3)cc1 (stereo unspecified) |  | inactive: -1.54% | 
COc1ccc(NC(=O)Cn2c(=O)n(-c3ccccc3)c(=O)c3c2cc(C)n3C)c(OC)c1 | inconclusive: 50.1 µM [inhibitor, partial curve, poor fit] |  | 
CCC(C(=O)NC1CCN(c2cc(-c3ccc(OC)cc3)[nH]n2)CC1)c1ccccc1 (stereo unspecified) | inconclusive: 70.8 µM [inhibitor, partial curve, poor fit] |  | 
O=C(Nc1ccc(Oc2ccccc2)cc1)O[C@@H]1CO[C@H]2[C@@H]1OC[C@@H]2NCC1CC1 | inconclusive: 126 µM [inhibitor, single point] |  | 
Cc1nnc(CN(C)c2ccc(-c3nc(CCCc4ccccc4)no3)cn2)o1 | inconclusive: 35.5 µM [inhibitor, full curve] |  | 
CCCn1c(C)cnc1CC1CCN(S(=O)(=O)c2ccc3c(c2)CCC3)C1 (stereo unspecified) | inconclusive: 56.2 µM [inhibitor, partial curve, poor fit] |  | 
O=C(c1ccc2ncccc2c1)N1CCCCCC1c1nnc(-c2ccccc2)o1 (stereo unspecified) | inconclusive: 100 µM [inhibitor, partial curve, poor fit] |  | 
Cc1ccc(-c2ncc(NC(=O)Cc3ccccc3C)cn2)cc1 | inconclusive: 79.4 µM [inhibitor, single point] |  | 
CCNC(=O)N[C@H]1[C@H](O)[C@H](O)C[C@@H]1c1ccc(C)cc1 |  | inactive: -2.25% [at 230 µM] | 
CN(c1ncccc1CNC(=O)c1ccc2c(c1)OCO2)C1CCCCC1 | inconclusive: 50.1 µM [inhibitor, partial curve, poor fit] |  | 
CCc1cc(=O)n(CC(=O)Nc2cc(C)on2)c(-c2ccccc2)n1 | inconclusive: 20 µM [inhibitor, full curve, poor fit] |  | 
CN(C)c1cc(=O)c2ccnc(-c3ccccc3Oc3ccccc3)c2o1 | inconclusive: 89.1 µM [inhibitor, partial curve, poor fit] |  | 
